Assay [1] deals with T1, Cyno GUCY2C ECD (his-tagged cynomolgus monkey GUCY2C protein extracellular domain fusion protein) (cynomolgus monkey, UniProt P25092 part only (human entry)).
T1 construct: also called monkey GUCY2C-his; monkey GUCY2C-His
T1 chain: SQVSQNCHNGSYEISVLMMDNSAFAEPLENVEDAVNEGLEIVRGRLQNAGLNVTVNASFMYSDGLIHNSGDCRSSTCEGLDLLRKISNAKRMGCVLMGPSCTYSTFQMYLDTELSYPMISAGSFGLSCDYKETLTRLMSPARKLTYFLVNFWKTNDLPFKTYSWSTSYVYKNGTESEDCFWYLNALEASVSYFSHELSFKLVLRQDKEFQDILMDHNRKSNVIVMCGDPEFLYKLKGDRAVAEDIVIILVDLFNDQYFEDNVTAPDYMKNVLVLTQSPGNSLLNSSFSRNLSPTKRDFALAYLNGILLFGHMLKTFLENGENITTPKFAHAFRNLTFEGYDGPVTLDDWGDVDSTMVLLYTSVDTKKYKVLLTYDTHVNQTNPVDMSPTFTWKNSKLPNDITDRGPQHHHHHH
Description: ELISA, plate coated with monkey GUCY2C-his, OD450. On the procedure: A human GUCY2C-his protein was diluted with PBS to a final concentration of 2 μg/mL and then added to a 96-well ELISA plate at 50 μL/well. The plate was sealed with a plastic film and incubated at 4° C. overnight. The next day, the plate was washed 2 times with PBST, and a blocking buffer [PBS+2% (w/w) BSA] was added for blocking at room temperature for 2 h. The blocking buffer was discarded, and the recombinant antibody and positive and negative control antibody with a starting concentration of 100 nM serially diluted by 3 folds were added at 50 μL/well. After incubation at 37° C. for 1 h, the plate was washed 3 times with PBST. A horseradish peroxidase (HRP)—labeled secondary antibody (purchased from Merck, Cat. No. AP113P) was added for incubation at 37° C. for 1 h, and the plate was washed 5 times with PBST. A TMB substrate was added at 50 μL/well for incubation at room temperature for 10 min, and then a stop solution (1.0 M HCl) was added at 50 μL/well. The OD450 nm values were read by an ELISA plate reader (Multimode Plate Reader, EnSight, purchased from Perkin Elmer).
The monkey GUCY2C-his and murine GUCY2C-his proteins were subjected to ELISA and data analysis according to the method described in Example 4.2. The recombinant antibodies Lab306-huFc, Lab322-huFc, and Lab323-huFc have a relatively good binding activity with the monkey GUCY2C-his protein. […]

Assay [2] deals with T2, Human GUCY2C ECD (his-tagged human GUCY2C protein extracellular domain fusion protein) (human, UniProt P25092 part only).
T2 construct: also called human GUCY2C-his; human GUCY2C-His
Put plainly: SPR Biacore, antibody on Protein A, antigen injected. On the procedure: The strength of antibody-antigen binding was assayed with a BIAcore 8K instrument using a Protein A capture method. First, Protein A was immobilized onto a CM4 chip (purchased from GE, BR-1005-34) using an amino coupling method. According to the instruction of the Amine Coupling Kit (purchased from GE, BR100633), NHS and EDC were mixed with HBS-EP+pH 7.4 as a mobile phase to activate the chip for about 600 s; the Protein A was diluted to 50 μg/mL with 10 mM sodium acetate (pH 4.5) and injected for 600 s, and finally, the remaining activated sites were blocked with ethanolamine. Then, the affinity of the antibody for the antigen was assayed using a multi-cycle kinetic method; in each cycle, first, the antibody to be tested was captured using the Protein A chip, and then a single concentration of antigen protein was injected. The association and dissociation processes of the antibody with the antigen protein were recorded, and finally, the chip was regenerated using Glycine pH 1.5, wherein the mobile phase was HBS-EP+(10 mM HEPES, 150 mM NaCl, 3 mM EDTA, 0.05% surfactant P20), the flow rate was 30 μL/min, the regeneration time was 30 s, and the assay temperature was 25° C. Finally, according to a 1:1 binding model, the data were analyzed, and the antibody-antigen binding kinetics parameters, including the association rate constant Ka, the dissociation rate constant Kd, the equilibrium dissociation constant KD, and the maximum binding signal Rmax, were fitted.
The association rate (Ka), dissociation rate (Kd), and binding affinity (KD) of the recombinant antibodies Lab306-huFc, Lab322-huFc, and Lab323-huFc with the human GUCY2C protein are shown in Table 5. The positive control antibody has good binding activity at the protein level, but has very weak binding at the cellular level. Lab322-huFc and Lab323-huFc, although weak in affinity, bind well to the cellular level, presumably due to differences in the conformation of the proteins and proteins at the viable cellular level.

The target of assay [3] is T3, human GUCY2C protein, full length, on cells (human, UniProt P25092 24-1073).
T3 construct: whole, on cells; also called endogenous tumor cells HT55
Put plainly: FACS on HT55 tumor cells (endogenous GUCY2C), MFI. On the procedure: Then a complete medium was added to stop the digestion, and the cells were blown into a single cell suspension. After counting, the cells were centrifuged, and the cell pellet was resuspended to 2×10⁶ cells/mL in an FACS buffer (PBS+2% fetal bovine serum), and added to a 96-well FACS reaction plate at 100 μL/well. The plate was centrifuged, and the supernatant was discarded. An antibody sample to be tested (diluted in a 3-fold gradient from a starting concentration of 100 nM) was added at 50 μL/well and uniformly mixed with the cells, and the mixture was incubated at 4° C. for 1 h. […] The results were tested and analyzed by FACS (FACS Canto™, purchased from BD) after the plate was centrifuged and washed 3 times with a PBS buffer and resuspended with 100 μL of PBS. Data analysis was performed by software (FlowJo) to obtain the mean fluorescence intensity (MFI) of the cells. Then, analysis was performed by software (GraphPad Prism8), data were fitted, and EC50 values were calculated.
The binding of the recombinant antibody to the endogenous tumor cell HT55 was detected in the same manner.

Assay [4] deals with T2, Human GUCY2C ECD (his-tagged human …). Put plainly: BLI Gator, antibody on anti-human Fc probe, antigen in solution. On the procedure: (§1) Next, we measured the affinity of the recombinant antibody by another method, and the specific procedures were as follows: the binding strength of the antibody to the antigen was assayed by acquiring and analyzing the signal change of the reflection interference spectrum on the surface of the optical probe by using thin film interference technology. First, the probe was equilibrated for 300 s with HBS-T+pH 7.4 (0.02% tween) as the mobile phase. 2 μg/mL of the antibody to be tested was captured by an anti-human FC probe (purchased from ProbeLife, PL168-160003) for 240 s, and then antigen proteins with the concentration of 200 nM and diluted two-fold were injected. Kon for 300 s and Koff for 600 s. The association and dissociation processes of the antibody with the antigen protein were recorded, and finally, the chip was regenerated using Glycine pH 2.0 (purchased from GE), wherein the mobile phase was HBS-T+pH 7.4 (0.02% tween), the regeneration time was 5 s, and the assay temperature was 30° C. Finally, according to a 1:1 binding model, the data were analyzed, and the antibody-antigen binding kinetics parameters, including the association rate constant Ka, the dissociation rate constant Kd, the equilibrium dissociation constant KD, and the maximum binding signal Rmax, were fitted. The association rate (Ka), dissociation rate (Kd), and binding affinity (KD) of the recombinant antibodies with the human GUCY2C and monkey GUCY2C proteins are shown in Table 6.

The target of assay [5] is T1, Cyno GUCY2C ECD (his-tagged cynomolgus …). The assay is described as above. On the procedure: as §1

B1: Lab306-huFc (Fc fusion)
chain: QLQLVESGGGLVQPGGSLRLSCVTSGFTLDDYAIGWFRQAPGKEREGVICLTSGGLPKYADSVKGRFTISRDNAKNTVYLRMDSLKPDDTAVYYCAASGATSRWNCPPQYDHWGQGTQVTVSS[human IgG1 Fc with C220S (EU numbers) not listed]
notes: No linker is stated between VHH and Fc; also called recombinant antibody Lab306-huFc
For the molecule B1, the half-maximal effective concentration (EC50 (read off the curve)) is ~0.2 nM in assay [1] and ~1 nM in assay [3]. Besides, the Kd in assay [2] is 1.83 nM; in assay [4], 0.969 nM; in assay [5], 1.08 nM. For the same molecule, the values for the koff in assay [2], in assay [4] and in assay [5] were 0.000276 s⁻¹, 0.000256 s⁻¹ and 0.000309 s⁻¹, respectively. Moreover, the on-rate (kon) in assay [2] was found to be 150000 M⁻¹ s⁻¹; in assay [4], 264000 M⁻¹ s⁻¹; in assay [5], 285000 M⁻¹ s⁻¹.
